These are yes or no findings as the source states them, for the method shown. Binding seen in cells or lysates may run through a third protein. Some results given as binding are weak or reduced against the parent protein; the word gives no strength. For some of these results: Tags and fused reporters may be left off the sequences shown.
How the values were obtained:
[1] = molecular target: gamma catalytic subunit of protein phosphatase 1 (PP1-γ), endogenous (human (endogenous in HEK293T)) (UniProt P36873); assay: co-IP; HEK293T cells transfected with 3X-FLAG tagged plasmids; endogenous PP1-γ immunoprecipitated from whole cell lysate (ProteinG Sepharose, overnight at 4°C; lysis buffer 50 mM Tris-HCl pH 7.4, 250 mM NaCl, 1 mM EDTA, 1% Triton-X 100); immunoblot with anti-FLAG or anti-PP1-γ (Figure 4A)
[2] = molecular target: gamma catalytic subunit of protein phosphatase 1 (PP1-γ), endogenous (human (endogenous in HEK293T)) (UniProt P36873); assay: co-IP; unpublished observations: endogenous interaction of endogenous proteins; cells and details not stated
[3] = molecular target: 3XFLAG-tagged IKKγ (NEMO) (UniProt Q9Y6K9); assay: co-IP; HEK293T/TLR7 cells transfected with FLAG-IKKγ or TRAF6 and PP1-γ, stimulated with R848 (10 µM) for 30 min; lysates immunoprecipitated for FLAG (anti-FLAG M2 agarose), immunoblotted for PP1-γ (Figure 4B)
[4] = molecular target: T1, FLAG-TRAF6 1–410 (partial TRAF-C domain mutant) (UniProt Q9Y4K3); assay: co-IP; HEK293T cells co-transfected with full length TRAF6 or FLAG-tagged truncation mutants and 1 ug of PP1-γ WT; FLAG immunoprecipitation, immunoblot with a PP1-γ antibody (Figure 4E)
T1 sequence: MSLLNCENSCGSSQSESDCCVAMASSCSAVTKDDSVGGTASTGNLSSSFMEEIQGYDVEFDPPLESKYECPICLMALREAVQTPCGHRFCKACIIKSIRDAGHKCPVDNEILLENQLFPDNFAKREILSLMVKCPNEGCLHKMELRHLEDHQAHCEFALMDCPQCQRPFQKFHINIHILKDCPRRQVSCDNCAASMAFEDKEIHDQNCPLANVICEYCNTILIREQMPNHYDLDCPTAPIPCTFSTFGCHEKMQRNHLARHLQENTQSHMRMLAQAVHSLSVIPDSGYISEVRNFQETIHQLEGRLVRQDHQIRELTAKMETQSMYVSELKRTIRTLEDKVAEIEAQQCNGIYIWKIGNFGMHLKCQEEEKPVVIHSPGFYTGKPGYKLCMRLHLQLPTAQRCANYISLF

Protein sequences, listed by entry. Tags and fused reporters are not part of them.
UniProt P36873: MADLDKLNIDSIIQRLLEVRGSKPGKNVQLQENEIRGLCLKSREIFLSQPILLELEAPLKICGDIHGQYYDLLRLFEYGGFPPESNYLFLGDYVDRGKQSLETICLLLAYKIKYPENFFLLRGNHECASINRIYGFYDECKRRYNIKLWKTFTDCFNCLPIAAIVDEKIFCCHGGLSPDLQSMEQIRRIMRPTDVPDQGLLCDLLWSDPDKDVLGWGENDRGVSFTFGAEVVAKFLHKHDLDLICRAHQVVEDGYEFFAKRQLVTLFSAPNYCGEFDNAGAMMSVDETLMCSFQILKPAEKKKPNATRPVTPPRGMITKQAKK
UniProt Q9Y6K9: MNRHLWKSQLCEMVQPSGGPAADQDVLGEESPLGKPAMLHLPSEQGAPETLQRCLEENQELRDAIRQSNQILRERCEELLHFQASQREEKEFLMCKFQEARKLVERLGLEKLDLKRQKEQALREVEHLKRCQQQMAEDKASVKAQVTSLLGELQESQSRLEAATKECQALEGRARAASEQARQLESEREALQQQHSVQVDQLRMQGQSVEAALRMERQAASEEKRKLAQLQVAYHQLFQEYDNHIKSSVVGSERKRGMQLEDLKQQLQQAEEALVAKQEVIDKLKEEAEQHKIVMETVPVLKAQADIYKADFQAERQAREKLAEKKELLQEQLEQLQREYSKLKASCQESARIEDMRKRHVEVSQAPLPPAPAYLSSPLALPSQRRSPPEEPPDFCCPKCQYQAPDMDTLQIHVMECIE

[5] = molecular target: gamma catalytic subunit of protein phosphatase 1 (PP1-γ), endogenous (human (endogenous in HEK293T)) (UniProt P36873); assay: co-IP; told only in the discussion, which points to Figure 4A; the legend of Figure 4A does not name TAK1

3XFLAG-tagged IKKγ (NEMO) (from UniProt Q9Y6K9 1-419)
binding [1]: binds

IKKγ (NEMO), endogenous (from UniProt Q9Y6K9 1-419)
binding [2]: binds

PP1-γ WT (ectopically expressed) (from UniProt P36873 1-323) (enzyme)
binding [3]: binds
binding [4]: binds

B1: TAK1 (TGF-β-activated kinase 1) (protein, UniProt O43318 1-606)
chain: MSTASAASSSSSSSAGEMIEAPSQVLNFEEIDYKEIEVEEVVGRGAFGVVCKAKWRAKDVAIKQIESESERKAFIVELRQLSRVNHPNIVKLYGACLNPVCLVMEYAEGGSLYNVLHGAEPLPYYTAAHAMSWCLQCSQGVAYLHSMQPKALIHRDLKPPNLLLVAGGTVLKICDFGTACDIQTHMTNNKGSAAWMAPEVFEGSNYSEKCDVFSWGIILWEVITRRKPFDEIGGPAFRIMWAVHNGTRPPLIKNLPKPIESLMTRCWSKDPSQRPSMEEIVKIMTHLMRYFPGADEPLQYPCQYSDEGQSNSATSTGSFMDIASTNTSNKSDTNMEQVPATNDTIKRLESKLLKNQAKQQSESGRLSLGASRGSSVESLPPTSEGKRMSADMSEIEARIAATTAYSKPKRGHRKTASFGNILDVPEIVISGNGQPRRRSIQDLTVTGTEPGQVSSRSSSPSVRMITTSGPTSEKPTRSHPWTPDDSTDTNGSDNSIPMAYLTLDHQLQPLAPCPNSKESMAVFEQHCKMAQEYMKVQTEIALLLQRKQELVAELDQDEKDQQNTSRLVQEHKKLLDENKSLSTYYQQCKKQLEVIRSQQQKRQGTS
binding [5]: binds

B2: 3XFLAG-tagged IKKε (protein, UniProt Q14164 1-716)
chain: MQSTANYLWHTDDLLGQGATASVYKARNKKSGELVAVKVFNTTSYLRPREVQVREFEVLRKLNHQNIVKLFAVEETGGSRQKVLVMEYCSSGSLLSVLESPENAFGLPEDEFLVVLRCVVAGMNHLRENGIVHRDIKPGNIMRLVGEEGQSIYKLTDFGAARELDDDEKFVSVYGTEEYLHPDMYERAVLRKPQQKAFGVTVDLWSIGVTLYHAATGSLPFIPFGGPRRNKEIMYRITTEKPAGAIAGAQRRENGPLEWSYTLPITCQLSLGLQSQLVPILANILEVEQAKCWGFDQFFAETSDILQRVVVHVFSLSQAVLHHIYIHAHNTIAIFQEAVHKQTSVAPRHQEYLFEGHLCVLEPSVSAQHIAHTTASSPLTLFSTAIPKGLAFRDPALDVPKFVPKVDLQADYNTAKGVLGAGYQALRLARALLDGQELMFRGLHWVMEVLQATCRRTLEVARTSLLYLSSSLGTERFSSVAGTPEIQELKAAAELRSRLRTLAEVLSRCSQNITETQESLSSLNRELVKSRDQVHEDRSIQQIQCCLDKMNFIYKQFKKSRMRPGLGYNEEQIHKLDKVNFSHLAKRLLQVFQEECVQKYQASLVTHGKRMRVVHETRNHLRLVGCSVAACNTEAQGVQESLSKLLEELSHQLLQDRAKGAQASPPPIAPYPSPTRKDLLLHMQELCEGMKLLASDLLDNNRIIERLNRVPAPPDV
binding [1]: no binding

B3: 3XFLAG-tagged TBK1 (protein, UniProt Q9UHD2 1-729)
chain: MQSTSNHLWLLSDILGQGATANVFRGRHKKTGDLFAIKVFNNISFLRPVDVQMREFEVLKKLNHKNIVKLFAIEEETTTRHKVLIMEFCPCGSLYTVLEEPSNAYGLPESEFLIVLRDVVGGMNHLRENGIVHRDIKPGNIMRVIGEDGQSVYKLTDFGAARELEDDEQFVSLYGTEEYLHPDMYERAVLRKDHQKKYGATVDLWSIGVTFYHAATGSLPFRPFEGPRRNKEVMYKIITGKPSGAISGVQKAENGPIDWSGDMPVSCSLSRGLQVLLTPVLANILEADQEKCWGFDQFFAETSDILHRMVIHVFSLQQMTAHKIYIHSYNTATIFHELVYKQTKIISSNQELIYEGRRLVLEPGRLAQHFPKTTEENPIFVVSREPLNTIGLIYEKISLPKVHPRYDLDGDASMAKAITGVVCYACRIASTLLLYQELMRKGIRWLIELIKDDYNETVHKKTEVVITLDFCIRNIEKTVKVYEKLMKINLEAAELGEISDIHTKLLRLSSSQGTIETSLQDIDSRLSPGGSLADAWAHQEGTHPKDRNVEKLQVLLNCMTEIYYQFKKDKAERRLAYNEEQIHKFDKQKLYYHATKAMTHFTDECVKKYEAFLNKSEEWIRKMLHLRKQLLSLTNQCFDIEEEVSKYQEYTNELQETLPQKMFTASSGIKHTMTPIYPSSNTLVEMTLGMKKLKEEMEGVVKELAENNHILERFGSLTMDGGLRNVDCL
binding [1]: no binding

— PMC3930702
